Laboratory results published in the BET-seq Pho4 binding data (Le et al. 2018).
Some of the results follow. Values were computed here from the reads of four pooled replicates and scatter widely.

Each sequence was assayed against T1, Pho4 (S. cerevisiae) (UniProt P07270) (assay: relative binding free energy (BET-seq); higher = weaker binding). Details: reference: library average.
T1 sequence: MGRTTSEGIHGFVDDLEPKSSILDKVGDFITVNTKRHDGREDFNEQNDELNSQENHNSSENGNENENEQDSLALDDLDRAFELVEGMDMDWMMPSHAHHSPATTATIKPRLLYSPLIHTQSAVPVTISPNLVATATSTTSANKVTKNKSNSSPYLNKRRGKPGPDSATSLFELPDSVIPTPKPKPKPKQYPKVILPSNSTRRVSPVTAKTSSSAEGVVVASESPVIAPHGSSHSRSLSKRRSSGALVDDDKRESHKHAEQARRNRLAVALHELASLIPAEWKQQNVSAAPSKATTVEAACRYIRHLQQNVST

| Sequence | relative binding free energy |
| --- | --- |
| GGGTGCACGTGGGTCA | -0.23 kcal/mol |
| TATTGCACGTGGAGGG | 0.08 kcal/mol |
| CGTTGCACGTGGGATG | -0.22 kcal/mol |
| GGTAGCACGTGGAGGG | -0.09 kcal/mol |
| GGTGACACGTGTATGG | 0.09 kcal/mol |
| TGTCACACGTGATAGT | 0.09 kcal/mol |
| TGCGACACGTGTGGAG | 0.11 kcal/mol |
| TTAGTCACGTGGTGTC | -0.05 kcal/mol |
| TGGGGCACGTGGACAG | -0.18 kcal/mol |
| TAAGTCACGTGAATTA | 0.44 kcal/mol |
| AAAGGCACGTGAGAGT | 0.03 kcal/mol |
| GAAGGCACGTGATTGT | 0.14 kcal/mol |
| TGACACACGTGGAGGT | -0.01 kcal/mol |
| AACGGCACGTGGTTTG | 0 kcal/mol |
| TGGCACACGTGCTGTG | -0.06 kcal/mol |
| TGAGACACGTGATTGT | 0.07 kcal/mol |
| GTGAACACGTGATGTG | 0.19 kcal/mol |
| GGAAACACGTGGGTAG | -0.06 kcal/mol |
| TTATTCACGTGCCGGT | 0.14 kcal/mol |
| TGGGTCACGTGGAGGT | 0.14 kcal/mol |
| GCTGTCACGTGTGTGC | 0.03 kcal/mol |
| GAGGTCACGTGATTTG | 0.19 kcal/mol |
| TGGTGCACGTGGAATG | -0.03 kcal/mol |

| Sequence | relative binding free energy |
| --- | --- |
| GCTTGCACGTGGAGGG | 0 kcal/mol |
| GTAGTCACGTGGGTTC | -0.01 kcal/mol |
| TTGCGCACGTGAGGGG | 0.21 kcal/mol |
| TGGGTCACGTGACGGT | 0.15 kcal/mol |
| TGGGACACGTGGCAAG | 0.11 kcal/mol |
| TAGTACACGTGTTTAA | 0.05 kcal/mol |
| TGCGTCACGTGTGCTA | 0.09 kcal/mol |
| TATATCACGTGTGGTA | 0.07 kcal/mol |
| ACGGGCACGTGGCTGT | -0.14 kcal/mol |
| ATGTTCACGTGGGAAA | 0.28 kcal/mol |
| GATGGCACGTGCGTGA | -0.15 kcal/mol |
| AAGATCACGTGGAAGT | 0.17 kcal/mol |
| CACTTCACGTGTGGTT | 0.24 kcal/mol |
| TTAGCCACGTGGTAGT | -0.01 kcal/mol |
| TGTAGCACGTGAGGTA | 0.18 kcal/mol |
| ATTTACACGTGGTGAG | 0.07 kcal/mol |
| GAGCGCACGTGGGTAT | -0.11 kcal/mol |
| TTTGGCACGTGGATTC | -0.03 kcal/mol |
| CTCGTCACGTGAAGGG | 0.13 kcal/mol |
| GGTGGCACGTGGTCGT | -0.12 kcal/mol |
| CGTTGCACGTGTTTAT | 0.15 kcal/mol |
| TCAAACACGTGATGGT | 0.29 kcal/mol |
| TGTGACACGTGTTATC | 0.07 kcal/mol |

| Sequence | relative binding free energy |
| --- | --- |
| CTGTACACGTGCGTGT | 0.05 kcal/mol |
| ATGGTCACGTGGCACG | 0 kcal/mol |
| TGAACCACGTGGGGGT | -0.16 kcal/mol |
| AGGTTCACGTGGTATC | 0.21 kcal/mol |
| CTGGTCACGTGACGTG | 0.2 kcal/mol |
| GTATGCACGTGAATTA | 0.17 kcal/mol |
| ATAGACACGTGAGTGA | 0.18 kcal/mol |
| AAGAGCACGTGAGGGT | 0.05 kcal/mol |
| TATATCACGTGGATGT | 0.1 kcal/mol |
| CTTGACACGTGGTGTA | -0.18 kcal/mol |
| AGTGGCACGTGTAGAG | -0.04 kcal/mol |
| TAGTCCACGTGAGGGG | 0.22 kcal/mol |
| GCTGTCACGTGTTTGG | 0.18 kcal/mol |
| GGAGGCACGTGTTCGA | -0.02 kcal/mol |
| CTCTGCACGTGGAGGG | 0.07 kcal/mol |
| AGGTTCACGTGTTCGA | 0.26 kcal/mol |
| CGTTGCACGTGGATGT | 0.02 kcal/mol |
| CGGAGCACGTGTGGTC | -0.04 kcal/mol |
| TGGAGCACGTGCGCGG | -0.14 kcal/mol |
| AGAATCACGTGGGGCT | -0.04 kcal/mol |
| AGAAGCACGTGTGTTT | 0.06 kcal/mol |
| GTGAGCACGTGGATGT | -0.07 kcal/mol |
| GGAAACACGTGGGTGT | -0.03 kcal/mol |

| Sequence | relative binding free energy |
| --- | --- |
| GTACACACGTGGGTAG | -0.08 kcal/mol |
| TTTAACACGTGGTGTG | -0.1 kcal/mol |
| TTTTTCACGTGCAATG | 0.33 kcal/mol |
| ATTAACACGTGAAGTT | 0.3 kcal/mol |
| AAGGGCACGTGGTATC | -0.11 kcal/mol |
| CGTTTCACGTGGTGGT | 0.35 kcal/mol |
| TTTCGCACGTGTATCG | 0.08 kcal/mol |
| GTATCCACGTGGTGTA | -0.09 kcal/mol |
| ATTTACACGTGGACGG | 0.13 kcal/mol |
| GCGTTCACGTGTTTGG | 0.32 kcal/mol |
| GAATGCACGTGGATTG | -0.08 kcal/mol |
| GTGGCCACGTGGTTGC | -0.17 kcal/mol |
| GTGGGCACGTGTTATT | -0.03 kcal/mol |
| TCGGGCACGTGTTGGC | -0.02 kcal/mol |
| CATGTCACGTGATGTA | 0.19 kcal/mol |
| ATCTACACGTGTTGTT | 0.06 kcal/mol |
| TGTTGCACGTGGGCTA | -0.22 kcal/mol |
| GGTAGCACGTGTAGGG | -0.05 kcal/mol |
| TGCGGCACGTGTCTTG | -0.13 kcal/mol |
| ATGTTCACGTGGCCAT | 0.19 kcal/mol |
| CGAGTCACGTGTGATA | 0.28 kcal/mol |
| TGGCTCACGTGGGATT | 0.14 kcal/mol |
| ATGGGCACGTGTAAAG | 0.04 kcal/mol |

| Sequence | relative binding free energy |
| --- | --- |
| ATTGACACGTGTTGAT | -0.01 kcal/mol |
| TTGTTCACGTGATTTA | 0.38 kcal/mol |
| TTTGTCACGTGCAAAT | 0.04 kcal/mol |
| TATGGCACGTGATAAG | -0.11 kcal/mol |
| TGGTCCACGTGAAGGT | 0.23 kcal/mol |
| TTGGGCACGTGGGCTG | -0.18 kcal/mol |
| CGAGTCACGTGGGGGG | -0.05 kcal/mol |
| AGTTTCACGTGCTAAT | 0.25 kcal/mol |
| TGTGTCACGTGTCCGT | 0.03 kcal/mol |
| GGCTACACGTGTTGGG | 0.33 kcal/mol |
| CGGGCCACGTGAGGGG | 0.03 kcal/mol |
| TTCGGCACGTGCTGGA | -0.08 kcal/mol |
| TGTTTCACGTGTGGCG | 0.29 kcal/mol |
| TTGGCCACGTGTCGGG | -0.18 kcal/mol |
| ATGGGCACGTGGCCGT | -0.24 kcal/mol |
| GATGTCACGTGGCGTG | 0.11 kcal/mol |
| CGCTTCACGTGGTGTG | 0.16 kcal/mol |
| TTTGGCACGTGGTTAC | -0.25 kcal/mol |
| TTTATCACGTGGATAA | 0.18 kcal/mol |
| TGGTCCACGTGGGTTG | -0.16 kcal/mol |
| ATTAGCACGTGGGGGC | -0.23 kcal/mol |
| TGTGTCACGTGTTGGC | -0.05 kcal/mol |
| CATAGCACGTGGGGCT | -0.19 kcal/mol |
